Drawing on PMC6750928, this text covers binding for two molecules.

Chains of the proteins cited; added tags and fusions are not shown. Residues count along the entry.
UniProt O15218: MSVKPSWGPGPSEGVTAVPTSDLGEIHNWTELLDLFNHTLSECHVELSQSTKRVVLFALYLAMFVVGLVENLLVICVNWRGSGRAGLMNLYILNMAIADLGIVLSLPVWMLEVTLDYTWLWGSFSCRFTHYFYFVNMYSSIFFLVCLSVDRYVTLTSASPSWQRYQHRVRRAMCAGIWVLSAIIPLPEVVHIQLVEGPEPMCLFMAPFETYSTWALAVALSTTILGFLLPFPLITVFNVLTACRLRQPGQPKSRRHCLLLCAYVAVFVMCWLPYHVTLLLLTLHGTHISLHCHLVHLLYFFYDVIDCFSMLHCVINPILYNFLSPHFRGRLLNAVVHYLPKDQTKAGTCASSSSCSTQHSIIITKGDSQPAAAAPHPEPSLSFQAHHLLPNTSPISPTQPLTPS
UniProt P46093: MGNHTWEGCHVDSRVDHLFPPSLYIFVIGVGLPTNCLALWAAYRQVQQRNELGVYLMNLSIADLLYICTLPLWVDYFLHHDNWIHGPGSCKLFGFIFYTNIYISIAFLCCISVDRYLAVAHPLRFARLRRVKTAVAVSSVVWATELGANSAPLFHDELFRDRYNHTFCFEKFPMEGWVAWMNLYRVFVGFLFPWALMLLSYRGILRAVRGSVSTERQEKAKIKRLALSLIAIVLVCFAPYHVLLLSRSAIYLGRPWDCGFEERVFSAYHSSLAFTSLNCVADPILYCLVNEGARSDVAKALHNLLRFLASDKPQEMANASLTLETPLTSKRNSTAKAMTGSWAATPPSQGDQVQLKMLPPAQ
UniProt P34998, residues 24-415: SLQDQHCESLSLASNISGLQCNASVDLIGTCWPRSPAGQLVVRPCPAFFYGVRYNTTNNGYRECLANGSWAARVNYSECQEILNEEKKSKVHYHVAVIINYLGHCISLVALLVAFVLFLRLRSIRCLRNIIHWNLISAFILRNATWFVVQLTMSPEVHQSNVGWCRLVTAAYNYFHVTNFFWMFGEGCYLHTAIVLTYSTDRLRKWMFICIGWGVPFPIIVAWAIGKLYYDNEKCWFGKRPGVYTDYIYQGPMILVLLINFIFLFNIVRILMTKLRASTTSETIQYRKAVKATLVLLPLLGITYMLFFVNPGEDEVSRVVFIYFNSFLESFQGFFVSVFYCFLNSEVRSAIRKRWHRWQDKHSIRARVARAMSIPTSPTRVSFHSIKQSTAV
UniProt P47871, residues 27-477: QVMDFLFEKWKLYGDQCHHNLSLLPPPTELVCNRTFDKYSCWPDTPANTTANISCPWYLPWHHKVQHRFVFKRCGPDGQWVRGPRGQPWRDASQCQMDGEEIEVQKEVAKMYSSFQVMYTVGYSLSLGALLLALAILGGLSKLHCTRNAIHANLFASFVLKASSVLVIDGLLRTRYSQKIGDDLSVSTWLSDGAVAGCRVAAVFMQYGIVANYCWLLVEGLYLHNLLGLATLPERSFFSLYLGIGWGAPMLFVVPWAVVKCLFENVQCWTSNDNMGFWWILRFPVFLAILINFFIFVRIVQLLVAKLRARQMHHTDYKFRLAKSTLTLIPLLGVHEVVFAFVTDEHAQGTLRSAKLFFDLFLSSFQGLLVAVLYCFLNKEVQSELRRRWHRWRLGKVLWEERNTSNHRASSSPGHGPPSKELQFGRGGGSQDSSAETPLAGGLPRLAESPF
UniProt Q03431, residues 29-593: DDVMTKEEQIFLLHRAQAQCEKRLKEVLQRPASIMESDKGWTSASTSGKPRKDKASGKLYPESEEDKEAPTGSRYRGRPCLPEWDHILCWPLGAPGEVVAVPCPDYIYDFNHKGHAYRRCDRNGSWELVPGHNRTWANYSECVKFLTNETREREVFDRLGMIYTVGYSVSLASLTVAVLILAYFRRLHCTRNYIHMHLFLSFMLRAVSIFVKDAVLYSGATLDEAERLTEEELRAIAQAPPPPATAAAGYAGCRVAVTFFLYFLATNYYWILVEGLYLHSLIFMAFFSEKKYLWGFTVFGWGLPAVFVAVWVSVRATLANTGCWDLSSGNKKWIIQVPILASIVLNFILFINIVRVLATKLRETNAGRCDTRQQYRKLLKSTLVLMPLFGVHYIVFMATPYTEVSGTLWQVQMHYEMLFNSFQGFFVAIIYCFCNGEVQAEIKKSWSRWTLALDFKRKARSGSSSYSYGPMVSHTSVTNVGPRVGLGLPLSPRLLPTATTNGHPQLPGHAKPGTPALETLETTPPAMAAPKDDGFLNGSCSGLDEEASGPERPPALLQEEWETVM
UniProt P49682: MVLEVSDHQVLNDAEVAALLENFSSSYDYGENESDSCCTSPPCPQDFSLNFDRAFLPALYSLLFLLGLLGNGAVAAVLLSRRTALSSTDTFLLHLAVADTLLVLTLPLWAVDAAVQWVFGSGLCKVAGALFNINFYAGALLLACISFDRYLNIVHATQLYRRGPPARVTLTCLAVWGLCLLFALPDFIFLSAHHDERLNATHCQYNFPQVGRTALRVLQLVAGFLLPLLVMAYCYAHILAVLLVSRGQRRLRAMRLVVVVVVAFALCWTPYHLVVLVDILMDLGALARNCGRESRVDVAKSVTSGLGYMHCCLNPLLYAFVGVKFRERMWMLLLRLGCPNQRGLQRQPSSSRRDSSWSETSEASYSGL
UniProt Q16602, residues 23-461: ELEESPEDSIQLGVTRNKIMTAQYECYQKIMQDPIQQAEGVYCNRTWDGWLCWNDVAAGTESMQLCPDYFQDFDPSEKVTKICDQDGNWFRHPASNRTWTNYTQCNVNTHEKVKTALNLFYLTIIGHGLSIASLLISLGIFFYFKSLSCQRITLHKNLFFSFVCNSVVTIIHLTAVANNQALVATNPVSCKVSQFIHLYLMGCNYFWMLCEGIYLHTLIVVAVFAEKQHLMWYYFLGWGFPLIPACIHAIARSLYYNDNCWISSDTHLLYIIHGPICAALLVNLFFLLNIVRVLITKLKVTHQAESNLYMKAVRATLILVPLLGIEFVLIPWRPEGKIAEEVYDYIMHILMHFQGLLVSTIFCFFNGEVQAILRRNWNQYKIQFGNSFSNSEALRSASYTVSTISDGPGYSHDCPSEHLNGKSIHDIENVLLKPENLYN
UniProt P43220, residues 24-463: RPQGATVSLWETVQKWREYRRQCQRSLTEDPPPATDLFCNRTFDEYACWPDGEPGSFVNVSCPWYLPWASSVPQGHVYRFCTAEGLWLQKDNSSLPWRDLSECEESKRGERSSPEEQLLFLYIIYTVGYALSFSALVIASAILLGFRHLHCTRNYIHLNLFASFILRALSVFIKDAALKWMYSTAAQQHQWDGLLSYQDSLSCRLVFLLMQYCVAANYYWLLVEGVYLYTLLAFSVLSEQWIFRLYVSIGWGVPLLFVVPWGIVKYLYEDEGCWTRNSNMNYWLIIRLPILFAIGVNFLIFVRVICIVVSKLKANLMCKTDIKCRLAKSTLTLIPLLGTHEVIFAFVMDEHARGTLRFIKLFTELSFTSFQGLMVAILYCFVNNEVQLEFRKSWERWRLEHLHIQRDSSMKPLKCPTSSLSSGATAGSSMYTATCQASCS
UniProt P49190, residues 25-550: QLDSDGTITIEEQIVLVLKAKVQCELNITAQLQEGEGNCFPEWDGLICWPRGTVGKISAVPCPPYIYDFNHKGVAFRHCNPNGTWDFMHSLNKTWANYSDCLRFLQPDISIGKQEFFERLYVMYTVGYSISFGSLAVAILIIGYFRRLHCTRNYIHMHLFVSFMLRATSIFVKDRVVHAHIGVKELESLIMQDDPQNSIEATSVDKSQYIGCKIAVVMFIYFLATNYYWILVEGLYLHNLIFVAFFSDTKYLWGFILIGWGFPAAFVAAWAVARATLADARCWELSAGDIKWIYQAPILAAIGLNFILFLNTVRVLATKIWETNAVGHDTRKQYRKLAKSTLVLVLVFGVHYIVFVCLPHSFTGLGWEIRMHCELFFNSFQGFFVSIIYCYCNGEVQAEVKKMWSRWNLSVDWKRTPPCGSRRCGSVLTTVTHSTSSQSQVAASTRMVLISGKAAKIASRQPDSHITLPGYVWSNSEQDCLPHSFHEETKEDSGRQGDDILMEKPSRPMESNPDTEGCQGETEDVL
UniProt P47872, residues 28-440: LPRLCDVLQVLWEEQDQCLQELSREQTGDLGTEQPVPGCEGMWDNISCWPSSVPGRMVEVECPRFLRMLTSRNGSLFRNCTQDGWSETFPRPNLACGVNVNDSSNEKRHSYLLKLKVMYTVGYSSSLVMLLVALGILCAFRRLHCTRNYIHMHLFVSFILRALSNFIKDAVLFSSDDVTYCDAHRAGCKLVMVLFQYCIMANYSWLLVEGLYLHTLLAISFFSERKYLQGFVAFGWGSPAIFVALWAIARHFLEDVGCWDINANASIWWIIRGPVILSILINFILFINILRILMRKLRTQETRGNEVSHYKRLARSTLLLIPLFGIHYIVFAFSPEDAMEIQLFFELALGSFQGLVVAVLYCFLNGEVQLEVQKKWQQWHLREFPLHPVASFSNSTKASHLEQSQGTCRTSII
UniProt P51681: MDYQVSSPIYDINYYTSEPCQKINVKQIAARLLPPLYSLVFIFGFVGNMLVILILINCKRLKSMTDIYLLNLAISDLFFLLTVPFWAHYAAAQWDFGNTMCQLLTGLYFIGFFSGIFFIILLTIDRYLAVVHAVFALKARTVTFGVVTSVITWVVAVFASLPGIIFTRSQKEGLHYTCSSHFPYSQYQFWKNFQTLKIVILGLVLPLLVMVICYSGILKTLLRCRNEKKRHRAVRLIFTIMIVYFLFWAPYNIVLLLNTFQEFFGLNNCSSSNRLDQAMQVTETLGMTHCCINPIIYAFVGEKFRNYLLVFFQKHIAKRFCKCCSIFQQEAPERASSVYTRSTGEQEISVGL
UniProt P32248, residues 25-378: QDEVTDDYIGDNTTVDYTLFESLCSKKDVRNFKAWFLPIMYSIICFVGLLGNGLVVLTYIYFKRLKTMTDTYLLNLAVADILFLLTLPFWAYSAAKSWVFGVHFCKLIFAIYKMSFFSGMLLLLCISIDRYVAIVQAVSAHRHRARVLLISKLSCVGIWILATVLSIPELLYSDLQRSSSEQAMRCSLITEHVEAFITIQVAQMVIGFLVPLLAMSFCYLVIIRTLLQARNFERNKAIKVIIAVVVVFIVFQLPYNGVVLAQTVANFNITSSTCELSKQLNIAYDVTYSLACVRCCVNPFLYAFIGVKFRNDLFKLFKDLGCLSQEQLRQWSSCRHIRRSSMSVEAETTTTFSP
UniProt O60895, residues 43-175: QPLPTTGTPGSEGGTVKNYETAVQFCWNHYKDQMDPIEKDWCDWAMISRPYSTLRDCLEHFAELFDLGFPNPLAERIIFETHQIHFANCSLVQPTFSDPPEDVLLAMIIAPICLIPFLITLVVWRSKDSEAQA

Assay [1] has as its target G protein-coupled receptor 182 (human) (UniProt O15218). In words: proximity ligation; HEK293T cells cotransfected with HA-tagged GPCR and FLAG-tagged RAMP2, fixed with methanol (or formaldehyde), rabbit anti-HA and mouse anti-FLAG primary Abs, DuoLink In Situ Red; PLA puncta per cell.
In assay [2] the target is G protein-coupled receptor 4 (human) (UniProt P46093). The assay is described as above.
Assay [3] concerns the target Corticotropin-releasing hormone receptor 1 (human) (UniProt P34998). Put plainly: co-IP; multiplexed suspension bead array (SBA) immunoassay: clarified lysates (1% DM; 50 mM Hepes, 1 mM EDTA, 150 mM NaCl, 5 mM MgCl2, pH 7.4) of HEK293F cells cotransfected with tagged GPCR and RAMP, diluted to 50 ug/ml, incubated overnight at 4°C with bar-coded beads carrying anti-tag (HA, 1D4, FLAG, OLLAS), anti-GPCR or anti-RAMP Abs; the partner detected with a PE-conjugated anti-tag mAb; Luminex FlexMap 3D, MFI.

In assay [4] the target is Glucagon receptor (human) (UniProt P47871). Described as above.
For assay [5], the target named is Parathyroid hormone receptor 1 (human) (UniProt Q03431). Described as above.
The target of assay [6] is C-X-C chemokine receptor type 3 (human) (UniProt P49682). The assay is described as above.
Assay [7] has as its target Calcitonin receptor-like receptor (human) (UniProt Q16602). The description is as above.
Assay [8] addresses Glucagon-like receptor 1 (human) (UniProt P43220). The description is as above.
Assay [9] addresses Parathryoid hormone receptor 2 (human) (UniProt P49190). The assay is described as above.
In assay [10] the target is Secretin receptor (human) (UniProt P47872). The description is as above.
Substrate in assay [11]: C-C chemokine receptor type 5 (human) (UniProt P51681)
The description is as above.

Substrate in assay [12]: C-C chemokine receptor type 7 (human) (UniProt P32248)
Described as above.

No constants are given. Whether binding was seen depends on the method and setting. In cells and extracts the contact can be indirect. Some binding calls cover weakened binding; strength is not graded here.

“Receptor activity-modifying protein 2 (from UniProt O60895 43-175)”: the binding result in assay [1], in assay [2], in assay [3], in assay [4] and in [5] was “binds” in each case.

B1: Receptor activity-modifying protein 3 (protein, UniProt O60896 28-148)
chain: CNETGMLERLPLCGKAFADMMGKVDVWKWCNLSEFIVYYESFTNCTEMEANVVGCYWPNPLAQGFITGIHRQFFSNCTVDRVHLEDPPDEVLIPLIVIPVVLTVAMAGLVVWRSKRTDTLL
Turning to B1, the binding result is “binds weakly” in assay [6]; “binds” in assay [7]; “binds” in assay [8]; “binds” in assay [9]; “binds” in assay [10]; “no binding” in [11]. Moreover, in [12], the binding entry was “no binding”.
